Measurements as given in publication PMC12136788.
Some of the results follow.

T1: UNK ZnF1-3 (human, UniProt Q9C0B0 31-174)
T1 sequence: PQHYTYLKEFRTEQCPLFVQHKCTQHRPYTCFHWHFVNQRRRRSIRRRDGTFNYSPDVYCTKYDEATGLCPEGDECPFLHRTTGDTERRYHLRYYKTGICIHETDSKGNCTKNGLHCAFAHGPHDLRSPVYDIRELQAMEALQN

B1: 118516228_118516348_3273_CDS_ENSG00000019144_ENST00000356063|human|control|control (ssRNA)
RNA: GGGAGUUCUACAGUCCGACGAUCGCAGGCCGAGUUGCCCCCGGUGGAGAUGCUGGUCUCCAUGCUGUCAGAGCUCUCCAGACUCAGCGUAUCAUAGGCGUGCUCACCCUCCUCCCCACGCUCCCGCCCCGCAGGCAGGUGGUGCAACAGAGGAUUGAGCAUCA
B2: chr1:174983830:174983831:-_ENSG00000120333_ENST00000367677|hu_hu|FALSE|FALSE (ssRNA)
RNA: GGGAGUUCUACAGUCCGACGAUCUUCUGGAGCUCAUUUACCAUGUCGCUCGCUGGAUCCCAGAAAGUUGCCCAUGGUCAGCUAAGUGACGGAAGACUAUACGACUAAGCCUCCAGCGCCGCUUCACACCACGCGGACGGGACGCAACAGAGGAUUGAGCAUCA
B3: chr12:16048344:16048345:+_ENSG00000023734_ENST00000419869|hu_hu|hu_hu_hu_mus_True|58_58 (ssRNA)
RNA: GGGAGUUCUACAGUCCGACGAUCAGAUCGUCCAUAAGUAAUAACCAAAAUCUCUCCUUCAGGAAUAUACUCCAUGCUACUAACAGACAUAUUAAAAUUCAGAGAUUUCACUUCUGUCAUUGUGGCAUGAUCCCAGAGCCGAACCAACAGAGGAUUGAGCAUCA
B4: chr11:46405157:46405158:+_ENSG00000110492_ENST00000395566|hu_hu|hu_hu_hu_mus_False|88_108 (ssRNA)
RNA: GGGAGUUCUACAGUCCGACGAUCCCCUUAGGGGUGGGGGCACUUGGUGAGAGGGACAGAGGACAGGCGUGAUUGACAGAGCUGACAGGAAGACAAAAGGCACUGGUGGGUUAUAUCUUGGGCCUGUGGGAGAGGAGGGCUCCGCAACAGAGGAUUGAGCAUCA
B5: chr17:45705486:45705487:-_ENSMUSG00000023944_ENSMUST00000024739|mus_mus|FALSE|FALSE (ssRNA)
RNA: GGGAGUUCUACAGUCCGACGAUCGUUGGCUGUCCAGCCAUAGGUGCUUGUCACAAUGCAGCAGGGUGAAGACACAAGCCUAUUGGAGAUUGUCACCUUUUCAACCUUCUUGUCCAAGAUCUCCUUCAUGAGCUUGCAGAGAUUCAACAGAGGAUUGAGCAUCA
B6: chr3:179287964:179287965:+_ENSG00000136518_ENST00000429709|hu_hu|hu_hu_hu_mus_True|78_88 (ssRNA)
RNA: GGGAGUUCUACAGUCCGACGAUCCUUGAGUGGUGAGAUGGCCUCCAUAUUCUCCCUCGGAACACGCAGGGCAUUGGUGUCUAUGUAGUAGGUGGGCCCGCCCUGCUUGCCUUUGUCACCAUCAAUCUCCAUCAUUGUACUUCCCAACAGAGGAUUGAGCAUCA
B7: 2235456_2235766_1521_CDS_ENSG00000157933_ENST00000378536|human|control|control (ssRNA)
RNA: GGGAGUUCUACAGUCCGACGAUCGGACGGGGAAGAGAGCGAGGACAAGGAGGAGGUGAAUUCCUCCCUGCUUUCAACUUCCACCUCCGCCUCCGAGUCCUUGUCCUCCUCUGGGGCAGCCACGGGCGCCAGCGUCUCUGGGGCCAACAGAGGAUUGAGCAUCA
B8: chr12:96407613:96407614:-_ENSG00000111144_ENST00000228740|hu_hu|FALSE|FALSE (ssRNA)
RNA: GGGAGUUCUACAGUCCGACGAUCCUUCCAGUCAUCAGUAGUUAUGCUCUUAUAGGAAAACUUCUCAACAUAAGCUUUUAAGAAUCCUAGGAAAAUCUCUGGUCCUCCAAGCAGUUGUUCAAGGUAAAAAAGUAAAGCAAAGCCCAACAGAGGAUUGAGCAUCA
B9: chrX:91780989:91780990:-_ENSMUSG00000025151_ENSMUST00000026142|mus_hu|motif|central (ssRNA)
RNA: GGGAGUUCUACAGUCCGACGAUCCUCUAGAUAGCUGUGUUUAGAAGGAAUCUGAGGCUUCAGCCUCACACAGGGGAAAGACGGCUGCGAUUGAUAGCAAUAUCCAACAUCUCACUCAACCCAGAAGAAACCAAUGGCACCAAACAACAGAGGAUUGAGCAUCA
B10: chr1:174017691:174017692:+_ENSMUSG00000026553_ENSMUST00000135192|mus_mus|FALSE|FALSE (ssRNA)
RNA: GGGAGUUCUACAGUCCGACGAUCAACUGGAUGACCCCAUUGUGUAAACUGGUCAGGAUCCAGGGUCUUUUAGGAUGAAAACUAAGGCCUUUGACCCGCGCGCUCUUCGUCUCGAAUUUGGUUAGCAUCCUUCAGGCCUCGGGCCAACAGAGGAUUGAGCAUCA
B11: chr10:61005495:61005496:+_ENSG00000165443_ENST00000486074|hu_hu|motif|central (ssRNA)
RNA: GGGAGUUCUACAGUCCGACGAUCAACUUAGGGUAUUUCAUCAUUGAAAGUAGUGGGAGGGGUAGGGAAUAGGAAAACACGGAAAUGGUUCUGAAUGAAAUUUGGAAAGUGGUAGUUGUUUGUUUUGGUGACAGUGGCAUGUGCCAACAGAGGAUUGAGCAUCA
B12: chr7:75932113:75932114:+_ENSG00000106211_ENST00000248553|hu_hu|hu_hu_hu_mus_False|1_18 (ssRNA)
RNA: GGGAGUUCUACAGUCCGACGAUCCUGCGACCACUCAUCGGGCAACCGGGGCACCCCGAAAGCUUGAUCGAAGAGGCGGCUGUGUGCAGGGUACCAGUCCCGGAAUGGUUCCCAGCUGCCCCGCAGGAGCAGCGAGAGGACGCGCAACAGAGGAUUGAGCAUCA
B13: chr11:94923035:94923036:-_ENSG00000149212_ENST00000536441|hu_mus|FALSE|FALSE (ssRNA)
RNA: GGGAGUUCUACAGUCCGACGAUCUCCAGUUUUGACAAGUUUCUGAAUGUGCUCUUUUGUGAUCAGCCAGGGCCGGUGUGCCAGCAGCUUGUUAAUUUCAUUAAGAUUUCUCAGUCUUUGUGGUACAUAUUCCAAGCCAUUCAGCAACAGAGGAUUGAGCAUCA
B14: chr5:171327072:171327073:-_ENSG00000072803_ENST00000265094|hu_hu|motif|central (ssRNA)
RNA: GGGAGUUCUACAGUCCGACGAUCUACCAGCUCUGCUGCACACAGAGACCUGGCAUCCAGGUACGAAAGAAUGUUUUCUGCGGUGUGAUCUAAGCCUUGCUCUGGUAAAGCGGUAAUAAAGUCCCGCUGCAACAUGGGCUUCAGCAACAGAGGAUUGAGCAUCA

The binders below were run against T1, UNK ZnF1-3 (assay: nsRBNS (natural sequence RNA bind-n-seq); RBNS binding buffer (assumed for nsRBNS): 25 mM Tris pH 7.5, 150 mM KCl, 3 mM MgCl2, 0.01% Triton X-100, 500 ug/ml BSA, 20 U/ml SUPERase-In, 4 C; UNK is unkempt and MSI1 is Musashi-1; names of the RNAs are library labels; protein concentration not given here; high values mean tight binding).

| Binder | binding signal |
| --- | --- |
| B1 | 0.855 enrichment R |
| B2 | 0.714 enrichment R |
| B3 | 1.02 enrichment R |
| B4 | 2.53 enrichment R |
| B5 | 1.12 enrichment R |
| B6 | 0.577 enrichment R |
| B7 | 0.644 enrichment R |
| B8 | 1.42 enrichment R |
| B9 | 1.35 enrichment R |
| B10 | 0.939 enrichment R |
| B11 | 1.93 enrichment R |
| B12 | 0.969 enrichment R |
| B13 | 0.827 enrichment R |
| B14 | 0.868 enrichment R |
